Read counts are not given, so values of variants with three or more changes are uncertain.
B1: LINE1-mini (parent)
chain: GGCAGAGCUCAACACAGCGUGGCAAAGUGGCUGUGGCUAGACUGCC

Variants of: B1
Experiment: self-cleavage, relative activity (ratio to wild type); higher = more cleavage; in vitro, sequencing; the parent is a self-cleaving ribozyme

Row | Variant | self-cleavage
1 | A4G C8U G19U U28C | 0.07
2 | A4G C8G G17A U32A G33A U34G | 0.03
3 | A4G A11C C18U G22C | 0.03
4 | A4C G19C C23G | 0.05
5 | A4C G7C G22A C37U | 0.12
6 | A4G A14U U32C | 0.35
7 | A4C G7C C13A A16U A24C C31G | 0.03
8 | A4G A12C A16C G27U G35U | 0.31
9 | A4G A25U G27A | 0.34
10 | A4C G35U A39U | 0.06
11 | A4G C13A A24U | 0.32
12 | A4G C10A U34G G44U | 0.01
13 | A4C G21U C23A G35U G40U | 0.06
14 | A4G A12U G19C A39U G44U | 0.03
15 | A4G A24U U28C G29U | 0.2
16 | A4C U38A C42A | 0.05
17 | A4G A24C U38A | 0.11
18 | A4G C13A A16C C23A A25G G30A | 0.04
19 | A4C U20G G22U C37G U43C | 0.01
20 | A4G A11U C15U A39G | 0.02
21 | A4G C8G G29A | 0.04
22 | A4C U9A A16U G30A | 0.04
23 | A4G A6U G7A U20A G30A C37A | 0.14
24 | A4C U9A A11C A26C G27A C31G | 0.02

Row | Variant | self-cleavage
25 | A4C U9C G22A A26C | 0
26 | A4G C8U C18G G22C A25U | 0.07
27 | A4G C15G G29U | 0.05
28 | A4G C18A A39G | 0.01
29 | A4G A26G U43C | 1.91
30 | A4C G21U G29C G36C C46U | 0.49
31 | A4G C15A G27C G40C C42U U43A | 0.03
32 | A4C G17A G36U | 0.34
33 | A4G C13A A41G | 0.16
34 | A4G A11U C31A U32G C45U | 0.02
35 | A4G C10U G21U G29U U38G A41U | 0.02
36 | A4G C13U C15G C37U | 0.88
37 | A4C G7A G30C C31U U32A | 0.35
38 | A4C U28A U38G | 0.01
39 | A4G A14C C18G G22C | 0.02
40 | A4C U20A C45G | 0.02
41 | A4G A16G G27A U28G G40U | 0.02
42 | A4C G7C C37U | 2.72
43 | A4C G19A C31A A41C | 0.02
44 | A4C G17U G36C | 0.1
45 | A4G A11U C31U A41C | 0.02
46 | A4C G7U A16C | 0.25
47 | A4C U9C C23A C46G | 0.1
48 | A4G C8A C10G G33C C37A U38G G40C | 0

Row | Variant | self-cleavage
49 | A4C G27C G33U C46A | 0.02
50 | A4C G19U G21A A26C | 0.12
51 | A4C G21A U32C | 0.06
52 | A4C G21A U28G C37G | 0.09
53 | A4G A11G C23U | 0.01
54 | A4G A14U C37A U38G | 0.02
55 | A4G C8U A24C C37U | 0.2
56 | A4G A11G A12U G21C G29A | 0.03
57 | A4G C15A U32G | 0
58 | A4G A12U G40C | 0.07
59 | A4C G17U C37G C46G | 0.06
60 | A4G C8G C23U U43C | 0.03
61 | A4G C10A C13U C31A | 0.02
62 | A4G A14G G29U | 0.12
63 | A4G C13U U28A | 0.06
64 | A4C G17C U28A | 0.04
65 | A4C U20A A39U C45U | 0.04
66 | A4G C8U A12U U34G | 0.03
67 | A4G C18U G19A U43A C45U | 0.05
68 | A4C U28G C37G | 0.03
69 | A4G A24C G27C U28G | 0.09
70 | A4G A12U G17U C31U U34C | 0.2
71 | A4C U28G G35A C42G C45U | 0.05
72 | A4C U20G G29U | 0.05

Row | Variant | self-cleavage
73 | A4G C15U U20C A26U | 0
74 | A4G A16C C18G G29U | 0.17
75 | A4G C10A G29U | 0.04
76 | A4C G7A G17A G27U G29A C37U C42U U43G | 0.3
77 | A4G A26G U32A | 0.02
78 | A4C G21U U28A A41C C46U | 0.03
79 | A4C G7C A16U G33U | 0.13
80 | A4C G21A A24U U28A | 0.4
81 | A4C G33U G35C | 0.36
82 | A4G C10U U38A | 0.01
83 | A4G C18G G30U U32G G36C U38G C45G | 0.14
84 | A4C G7U C13A | 0.46
85 | A4G A6G G30C U34G U38A | 0
86 | A4G C8G G19C | 0.03
87 | A4G A11C C18U | 0
88 | A4G C15A U20C A25C G33C | 0
89 | A4C G17U G27U G29C G40C A41U | 0.03
90 | A4C U20G C31A G33U G36C | 0.06
91 | A4G C10U C18A U20G C31U U43A | 0.03
92 | A4G A16G A25U | 0.02
93 | A4G C15G C42A | 0.02
94 | A4C U20C G21C G33A C45U | 0.12
95 | A4C G29U U38C C46G | 0.3
96 | A4G C15G A16U C18U G21A C31A G33C C37G | 0.03

Row | Variant | self-cleavage
97 | A4G C15A C31A C37A A39C | 0.23
98 | A4G A6G C18A G19C A26U G30C G44U | 0.06
99 | A4G C10U A41U | 0.05
100 | A4G C15G A24U A26G | 0.04
101 | A4G C8U A11G G22C | 0.01
102 | A4C G19C G22A A25G U28C C37A | 0.01
103 | A4G C8U G19A G21U U32A | 0.04
104 | A4G A12G G22U G40U | 0.22
105 | A4G C18U G22C | 0.13
106 | A4G C8U G21C A39C | 0.04
107 | A4C G33C G35U | 0.01
108 | A4G C13U G30U C31U | 0.07
109 | A4G C23A U43G | 0
110 | A4C U20A G29U | 0.02
111 | A4G C15A G30C C31U | 0.1
112 | A4C G17U G22U | 0.05
113 | A4C G7U C10U | 0.04
114 | A4C G17U U20A G30C | 0.11
115 | A4G A11U U38A | 0.04
116 | A4G C8U C18U | 0.12
117 | A4G A11C C13U G17A A41C | 0.02
118 | A4C G19A G21U G22A | 0.05
119 | A4G A24C U34G | 0.09
120 | A4G A12C C37G | 0

Row | Variant | self-cleavage
121 | A4C G21A C37U U38G | 0.02
122 | A4C G7A G29A C42U | 0.17
123 | A4G A25G U34A | 0.01
124 | A4G C8A G19A G27U G36A C45A | 0.44
125 | A4G C15U G44C C45G | 0.04
126 | A4G A11U U34C | 0
127 | A4G A14G C18U G27C C37U | 0.48
128 | A4C G29C C31A | 0.34
129 | A4G C8G A12U C31A C45U | 0.01
130 | A4G A14C C18A | 0.07
131 | A4C G35U C42G G44A | 0.01
132 | A4C U9A G17U | 0.15
133 | A4G A39C G40U | 0.02
134 | A4G C10G G22C G27U G30A C31A U43G | 0
135 | A4C G27U G33U G35U C37A | 0.06
136 | A4C U34C U38C | 0.04
137 | A4C U28A G29C U43G | 0.02
138 | A4G A11U A16C G22A U32A G36U | 0.02
139 | A4G A14U G17U | 0.01
140 | A4G C13A C18G A25C U38C | 0.04
141 | A4C G21U U38G | 0.01
142 | A4C G40A C42U C45U | 0.01
143 | A4G C18U G35C C42A | 0.04
144 | A4G A6C A12G | 0.1

Row | Variant | self-cleavage
145 | A4C G7C C8A U20C | 0.04
146 | A4G C15G U32G U34C A39G | 0.05
147 | A4G C15A U43A | 0.01
148 | A4C G17A G35C G36U C45U | 0.01
149 | A4G A6U C8G G22U G27A | 0.02
150 | A4C U9A G29U | 1.99
151 | A4G A6G G22C | 0.09
152 | A4G C8A G29A G33U | 0.08
153 | A4C G27A G36A | 1.28
154 | A4G C10A U43A | 0.02
155 | A4C G7C A14U G17A G21C G27U U43C | 0.14
156 | A4G C10G A26C | 0.05
157 | A4C U9A U28C C37G | 0.56
158 | A4C G7U A14G C15A A26C G36U C37A | 0.72
159 | A4G C15U A26U G36A C46G | 0.24
160 | A4C G19A G35A C46A | 0.04
161 | A4G A14U A24G A41U U43A | 0.18
162 | A4C G33A C46G | 0.04
163 | A4C G17A A25G | 0.32
164 | A4C U9G C31G A39C | 0.02
165 | A4C G35U G44C | 0.05
166 | A4G A11U C18U | 0.05
167 | A4C G17A C18U U20C G36A G40C | 0.02

Reference: the RNAGym collection of RNA variant scans (doi:10.7554/elife.90254)
